T1: carcinoembryonic antigen (CEA) (human), P06731
T1 chain: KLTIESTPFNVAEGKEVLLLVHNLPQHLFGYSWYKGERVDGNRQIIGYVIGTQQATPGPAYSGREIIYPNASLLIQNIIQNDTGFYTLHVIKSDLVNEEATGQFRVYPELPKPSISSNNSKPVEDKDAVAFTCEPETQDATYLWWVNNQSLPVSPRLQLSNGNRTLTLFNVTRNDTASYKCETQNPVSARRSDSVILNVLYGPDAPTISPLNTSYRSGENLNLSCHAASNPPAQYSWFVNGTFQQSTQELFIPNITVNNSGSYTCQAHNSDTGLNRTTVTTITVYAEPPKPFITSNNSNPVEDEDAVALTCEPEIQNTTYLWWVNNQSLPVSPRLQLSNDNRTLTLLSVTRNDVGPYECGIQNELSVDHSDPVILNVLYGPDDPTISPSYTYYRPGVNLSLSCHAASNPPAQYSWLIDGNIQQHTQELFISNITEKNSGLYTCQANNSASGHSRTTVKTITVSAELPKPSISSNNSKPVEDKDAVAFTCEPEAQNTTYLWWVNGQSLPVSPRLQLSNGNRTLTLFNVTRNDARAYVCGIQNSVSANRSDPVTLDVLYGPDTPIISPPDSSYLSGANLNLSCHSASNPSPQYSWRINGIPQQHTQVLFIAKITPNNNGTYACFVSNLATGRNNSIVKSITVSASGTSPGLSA


Experiments:
[1] = molecular target: T1, carcinoembryonic antigen (CEA) (human), …; test: FACS on MKN45 cells (CEA), both hemibodies mixed 1:1, detected with anti-human IgG(H+L) secondary (legend box: FITC; title: A488)
[2] = molecular target: T1, carcinoembryonic antigen (CEA) (human), …; test: FACS on MKN-45 cells, both hemibodies added together, detection with anti-huIgG(H+L)-Alexa488

Row | EC50 (read off the curve) (µg/ml each Ab) [1] | EC50 [2] [µg/mL] | Binder
1 | 0.7 |  | P1AD8749 + P1AD8592 (1:1 mixture of both hemibodies) (protein) heavy 1: QVQLVQSGAEVKKPGASVKVSCKASGYTFTEFGMNWVRQAPGQGLEWMGWINTKTGEATYVEEFKGRVTFTTDTSTSTAYMELRSLRSDDTAVYYCARWDFAYYVEAMDYWGQGTTVTVSSASTKGPSVFPLAPSSKSTSGGTAALGCLVKDYFPEPVTVSWNSGALTSGVHTFPAVLQSSGLYSLSSVVTVPSSSLGTQTYICNVNHKPSNTKVDKKVEPKSCDKTHTCPPCPAPEAAGGPSVFLFPPKPKDTLMISRTPEVTCVVVDVSHEDPEVKFNWYVDGVEVHNAKTKPREEQYNSTYRVVSVLTVLHQDWLNGKEYKCKVSNKALGAPIEKTISKAKGQPREPQVCTLPPSRDELTKNQVSLSCAVKGFYPSDIAVEWESNGQPENNYKTTPPVLDSDGSFFLVSKLTVDKSRWQQGNVFSCSVMHEALHNHYTQKSLSLSPG heavy 2: QVQLVQSGAEVKKPGASVKVSCKASGYTFTEFGMNWVRQAPGQGLEWMGWINTKTGEATYVEEFKGRVTFTTDTSTSTAYMELRSLRSDDTAVYYCARWDFAYYVEAMDYWGQGTTVTVSSASTKGPSVFPLAPSSKSTSGGTAALGCLVKDYFPEPVTVSWNSGALTSGVHTFPAVLQSSGLYSLSSVVTVPSSSLGTQTYICNVNHKPSNTKVDKKV[human IgG1 Fc with changes not listed]GGGGSGGGGSGGGGSGGGGSVTLKESGPVLVKPTETLTLTCTVSGFSLSTYSMSWIRQPPGKALEWLGFIGSRGDTYYASWAKGRLTISKDTSKSQVVLTMTNMDPVDTATYYCARERDPYGGGAYPPHLWGRGTLVTVSS heavy 3: QVQLVQSGAEVKKPGASVKVSCKASGYTFTEFGMNWVRQAPGQGLEWMGWINTKTGEATYVEEFKGRVTFTTDTSTSTAYMELRSLRSDDTAVYYCARWDFAYYVEAMDYWGQGTTVTVSSASTKGPSVFPLAPSSKSTSGGTAALGCLVKDYFPEPVTVSWNSGALTSGVHTFPAVLQSSGLYSLSSVVTVPSSSLGTQTYICNVNHKPSNTKVDKKV[human IgG1 Fc with changes not listed] heavy 4: QVQLVQSGAEVKKPGASVKVSCKASGYTFTEFGMNWVRQAPGQGLEWMGWINTKTGEATYVEEFKGRVTFTTDTSTSTAYMELRSLRSDDTAVYYCARWDFAYYVEAMDYWGQGTTVTVSSASTKGPSVFPLAPSSKSTSGGTAALGCLVKDYFPEPVTVSWNSGALTSGVHTFPAVLQSSGLYSLSSVVTVPSSSLGTQTYICNVNHKPSNTKVDKKVEPKSCDKTHTCPPCPAPEAAGGPSVFLFPPKPKDTLMISRTPEVTCVVVDVSHEDPEVKFNWYVDGVEVHNAKTKPREEQYNSTYRVVSVLTVLHQDWLNGKEYKCKVSNKALGAPIEKTISKAKGQPREPQVCTLPPSRDELTKNQVSLSCAVKGFYPSDIAVEWESNGQPENNYKTTPPVLDSDGSFFLVSKLTVDKSRWQQGNVFSCSVMHEALHNHYTQKSLSLSPGGGGGSGGGGSGGGGSGGGGSIQMTQSPSSLSASVGDRVTITCQSSHSVYSDNDLAWYQQKPGKAPKLLIYQASKLASGVPSRFSGSGSGTDFTLTISSLQPEDFATYYCLGGYDDESDTYGFGGGTKVEIK light: DIQMTQSPSSLSASVGDRVTITCKASAAVGTYVAWYQQKPGKAPKLLIYSASYRKRGVPSRFSGSGSGTDFTLTISSLQPEDFATYYCHQYYTYPLFTFGQGTKLEIKRTVAAPSVFIFPPSDEQLKSGTASVVCLLNNFYPREAKVQWKVDNALQSGNSQESVTEQDSKDSTYSLSSTLTLSKADYEKHKVYACEVTHQGLSSPVTKSFNRGEC
2 |  | 0.9 | P1AF0712 + P1AF0713 (mixture of both SPLIT antibodies) (protein) heavy 1: QVQLVQSGAEVKKPGASVKVSCKASGYTFTEFGMNWVRQAPGQGLEWMGWINTKTGEATYVEEFKGRVTFTTDTSTSTAYMELRSLRSDDTAVYYCARWDFAYYVEAMDYWGQGTTVTVSSASTKGPSVFPLAPSSKSTSGGTAALGCLVKDYFPEPVTVSWNSGALTSGVHTFPAVLQSSGLYSLSSVVTVPSSSLGTQTYICNVNHKPSNTKVDKKV[human IgG1 Fc with changes not listed] heavy 2: QVQLVQSGAEVKKPGASVKVSCKASGYTFTEFGMNWVRQAPGQGLEWMGWINTKTGEATYVEEFKGRVTFTTDTSTSTAYMELRSLRSDDTAVYYCARWDFAYYVEAMDYWGQGTTVTVSSASTKGPSVFPLAPSSKSTSGGTAALGCLVKDYFPEPVTVSWNSGALTSGVHTFPAVLQSSGLYSLSSVVTVPSSSLGTQTYICNVNHKPSNTKVDKKVEPKSCDKTHTCPPCPAPEAAGGPSVFLFPPKPKDTLMISRTPEVTCVVVDVSHEDPEVKFNWYVDGVEVHNAKTKPREEQYNSTYRVVSVLTVLHQDWLNGKEYKCKVSNKALGAPIEKTISKAKGQPREPQVCTLPPSRDELTKNQVSLSCAVKGFYPSDIAVEWESNGQPENNYKTTPPVLDSDGSFFLVSKLTVDKSRWQQGNVFSCSVMHEALHNHYTQKSLSLSPGGGGGSGGGGSGGGGSGGGGSQAVVIQESALTTPPGETVTLTCGSSTGAVTASNYANWVQEKPDHLFTGLIGGHNNRPPGVPARFSGSLIGDKAALTIAGTQTEDEAIYFCALWYSDHWVIGGGTKLTVL heavy 3: QVQLVQSGAEVKKPGASVKVSCKASGYTFTEFGMNWVRQAPGQGLEWMGWINTKTGEATYVEEFKGRVTFTTDTSTSTAYMELRSLRSDDTAVYYCARWDFAYYVEAMDYWGQGTTVTVSSASTKGPSVFPLAPSSKSTSGGTAALGCLVKDYFPEPVTVSWNSGALTSGVHTFPAVLQSSGLYSLSSVVTVPSSSLGTQTYICNVNHKPSNTKVDKKVEPKSCDKTHTCPPCPAPEAAGGPSVFLFPPKPKDTLMISRTPEVTCVVVDVSHEDPEVKFNWYVDGVEVHNAKTKPREEQYNSTYRVVSVLTVLHQDWLNGKEYKCKVSNKALGAPIEKTISKAKGQPREPQVCTLPPSRDELTKNQVSLSCAVKGFYPSDIAVEWESNGQPENNYKTTPPVLDSDGSFFLVSKLTVDKSRWQQGNVFSCSVMHEALHNHYTQKSLSLSPG heavy 4: QVQLVQSGAEVKKPGASVKVSCKASGYTFTEFGMNWVRQAPGQGLEWMGWINTKTGEATYVEEFKGRVTFTTDTSTSTAYMELRSLRSDDTAVYYCARWDFAYYVEAMDYWGQGTTVTVSSASTKGPSVFPLAPSSKSTSGGTAALGCLVKDYFPEPVTVSWNSGALTSGVHTFPAVLQSSGLYSLSSVVTVPSSSLGTQTYICNVNHKPSNTKVDKKV[human IgG1 Fc with changes not listed]GGGGSGGGGSGGGGSGGGGSHVKLQESGPGLVQPSQSLSLTCTVSGFSLTDYGVHWVRQSPGKGLEWLGVIWSGGGTAYNTALISRLNIYRDNSKNQVFLEMNSLQAEDTAMYYCARRGSYPYNYFDAWGQGTTVTVSSAST light: DIQMTQSPSSLSASVGDRVTITCKASAAVGTYVAWYQQKPGKAPKLLIYSASYRKRGVPSRFSGSGSGTDFTLTISSLQPEDFATYYCHQYYTYPLFTFGQGTKLEIKRTVAAPSVFIFPPSDEQLKSGTASVVCLLNNFYPREAKVQWKVDNALQSGNSQESVTEQDSKDSTYSLSSTLTLSKADYEKHKVYACEVTHQGLSSPVTKSFNRGEC
